Structures are written as SMILES. Hit rate of the full screen: of about 340,000 compounds, about 6,900 (2%) were called active. Rule as the data show it: active = inhibition above about 30%; inactive = below that, where a call was filed. The entries are a selection whose mix differs from that of the whole data set. Entries without a call were filed so in the source.

UniProt P14416, sequence (P14416 whole entry, looked up): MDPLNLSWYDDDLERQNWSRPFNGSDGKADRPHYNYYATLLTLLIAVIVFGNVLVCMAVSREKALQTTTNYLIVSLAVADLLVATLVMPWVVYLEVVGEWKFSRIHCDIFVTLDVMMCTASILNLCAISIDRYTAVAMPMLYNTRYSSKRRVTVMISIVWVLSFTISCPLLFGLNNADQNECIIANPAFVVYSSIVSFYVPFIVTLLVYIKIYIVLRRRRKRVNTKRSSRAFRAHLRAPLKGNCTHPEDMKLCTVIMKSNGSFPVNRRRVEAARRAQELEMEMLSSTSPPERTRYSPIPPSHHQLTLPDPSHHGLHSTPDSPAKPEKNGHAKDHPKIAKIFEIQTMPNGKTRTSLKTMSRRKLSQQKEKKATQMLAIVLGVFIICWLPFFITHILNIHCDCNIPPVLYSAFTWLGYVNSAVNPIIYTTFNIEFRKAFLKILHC

The assay deals with D(2) dopamine receptor (Homo sapiens) (UniProt P14416). Description: HTS Assay for Allosteric Antagonists of the Human D2 Dopamine Receptor: Primary Screen for Antagonists. Also: 0% is about no effect. The following applies: HEK293 TREx D2 cells, calcium flux, dopamine EC80; at 10 µM; stronger effect = higher value. The method, boiled down:
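HEK293 T-REx D2 cells, tet-induced, calcium dye no-wash. Cpd pintool add, 180 s kinetic, then EC80 DA, 180 s kinetic. Ca flux read.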
(In general: Calcium assays in cells follow changes in intracellular calcium, usually with a dye or a luminescent sensor.)
In general, inhibition refers to the change of the read-out against control, counted positive when it falls. Regarding `O=C1CC(c2ccccc2)Cc2[nH]c(=O)c(C(=O)Nc3cccc(Cl)c3)cc21` (centres undefined), the inhibition is -0.135%.
As for `COC(=O)c1ccc(NC(=O)CN2CCN(c3ccc(Cl)cc3)CC2)cc1`, the figure is 3.05%.
In the case of `CCOC(=O)N1CCN(CCCc2ccccc2)CC1` it was active: 34.2%; in that of `O=C1Cc2ccccc2Sc2c(OCCN3CCCCC3)cccc21`, active: 80.3%; in that of `COc1ccc(C(=O)CN2C(=O)N(c3ccc(C(C)=O)cc3)S(=O)(=O)c3ccccc32)cc1`, -13.6%.
In the case of `O=C(CSc1nc(-c2ccccc2)no1)N1CCCCC1` it was -8.05%; in that of `Cc1ccccc1-c1nn2c(=O)cc(CN3CCN(C(=O)c4ccc(C(C)(C)C)cc4)CC3)nc2s1`, -4.81%.
For `Cc1ccc(Cn2nnc(C(=O)Nc3ccc(F)c(F)c3)c2N)cc1`, the inhibition is 23.1%.
As for `Cc1nc2ccc(S(=O)(=O)N(C)CC(=O)Nc3ccc(Br)c(C)c3)cc2s1`, the inhibition stood at 2.28%.
As for `CCOc1ccc(C2CC(=O)c3c([nH]c(C(=O)OCc4ccccc4)c3C)C2)cc1` (centres undefined), the figure is 6.87%; as for `CCc1cccc(C)c1NC(=O)Cn1ccn(-c2ccc(F)cc2)c(=O)c1=O`, 0.671%.
In the case of `COc1ccc(CCN2C(=O)c3oc4ccc(F)cc4c(=O)c3C2c2ccc(C(C)(C)C)cc2)cc1` (centres undefined) it was -5.63%.
In the case of `COc1ccc(S(=O)(=O)N(CCc2ccccc2)CC(=O)Nc2cccc(OC)c2)cc1` it was 15.3%.
For `CCOC(=O)c1cccc(NC(=O)C2CCN(S(=O)(=O)c3ccc4c(c3)oc(=O)n4C)CC2)c1`, the inhibition was -16.3%.
As for `COc1ccccc1N1CCN(c2ncnc3c2cnn3C)CC1`, the figure is -4.24%.
In the case of `CCOc1ccc(C2c3cc(OCC)c(OCC)cc3CC(=O)N2c2ccc(C(=O)O)cc2)cc1OCC` (centres undefined) it was 0.879%; in that of `CCc1ccc(C(=O)COC(=O)C(Cc2c[nH]c3ccccc23)NC(=O)c2ccc(Br)cc2)cc1` (centres undefined), -0.176%.
In the case of `CCN(CC)c1cc2c(cc1F)c(=O)c(S(=O)(=O)c1cc(C)ccc1C)cn2Cc1ccccc1` it was 2.76%; in that of `CCOc1ccc(C2=NC(c3cccs3)=Nc3ccc(C(C)C)cc3N2)cc1`, -3.22%; in that of `CCOc1ccccc1-n1nnc(-c2nc(-c3ccccc3)no2)c1N`, 4.62%.
`Cc1cccc(CC2C(=O)Nc3ccccc32)c1` (centres undefined): the inhibition was -7.96%.
As for `CCOC(=O)c1c(NC(=O)c2ccc(S(=O)(=O)N(CCOC)CCOC)cc2)sc2c1CC(C)(C)NC2(C)C`, the figure is 24.7%.
In the case of `Cc1cc(OC(=O)c2ccco2)c(Sc2ccccc2[N+](=O)[O-])c(=O)o1` it was active: 33.8%; in that of `Cc1ccccc1N(C(=O)c1csnn1)C(C(=O)NC(C)(C)C)c1cccs1` (centres undefined), active: 36.5%; in that of `COc1ccc(-c2nc3sc(CCNC(=O)c4cc(Cl)ccc4OC)c(C)n3n2)cc1`, -13.6%.
With `CN(Cc1ccccc1)S(=O)(=O)c1ccc(F)c(C(=O)Nc2cccc(Cl)c2Cl)c1`, the inhibition was -19.6%.
Regarding `Cc1ccc(C(C)(C)C)c(OCC(=O)NCCc2nc3ccccc3[nH]2)c1`, the inhibition was 6.71%.
As for `CCN1CCN(c2ccc(NS(=O)(=O)c3c(C)nc4sccn4c3=O)cc2Cl)CC1`, the figure is 10.5%.
As for `COc1ccc(C(=O)CC2(O)C(=O)N(Cc3ccccc3Cl)c3ccccc32)cc1` (centres undefined), the figure is 9.82%; as for `COc1ccc(CNC(=O)CCC(=O)N2CCSc3ccccc32)cc1`, -4.01%.
In the case of `CCOc1ccc(-n2c(C)nc3cc(C(=O)NCCC4=CCCCC4)ccc32)cc1`, the inhibition is -7.1%.
In the case of `CCOC(=O)c1ccc(NC(=O)C2=C(C)Nc3nc(SCc4ccc(Cl)cc4)nn3C2c2ccc(OC)cc2)cc1` (centres undefined) it was -7.45%; in that of `COc1ccc(-c2nnc(SCC(=O)Nc3ccc(Cl)cc3)s2)cc1`, -6.45%; in that of `CCOc1ccc(N2C(=O)CC(NC3CCN(C(=O)c4ccc(F)cc4)CC3)C2=O)cc1` (centres undefined), active: 37.9%.
Take `COc1cccc(-c2cc(C(=O)Nc3cc(OC)c(OC)c(OC)c3)on2)c1`: the inhibition was -24.1%.
Consider `COc1cccc2c1cc1c(=O)n(CC(=O)N3CCN(c4cc(Cl)ccc4C)CC3)nc(C)n12`, for which the inhibition was -2.58%.
As for `COc1ccc(-c2nc(Cn3c(SCc4ccc(C)cc4)nc4cccnc43)c(C)o2)cc1OC`, the figure is -4.58%; as for `CCC1CCCCN1CC(=O)N1CCCc2c1c(=O)oc1ccc(OCc3ccccc3)cc21` (centres undefined), -9.5%.
As for `O=C(CCCn1c(=O)c2cccn2c2cccnc21)NCc1ccc(F)cc1`, the figure is -1.08%; as for `O=S(=O)(c1ccccc1)c1nc(-c2ccc(Cl)cc2Cl)oc1N1CCCCCC1`, 7.5%.
In the case of `COc1ccc(CNC(=O)Cn2nnc(-c3ccc(S(C)(=O)=O)cc3)n2)cc1` it was 2.31%; in that of `COc1cc(NS(=O)(=O)c2ccc(NC(=O)/C(=C\c3ccccc3OC)NC(=O)c3ccccc3)cc2)nc(OC)n1`, active: 32%; in that of `Cc1cc(C)cc(N2CCn3c2nc2c3c(=O)n(Cc3ccc(Cl)cc3)c(=O)n2C)c1`, -6.86%.
Turning to `CC(C)c1ccc(CNc2nc(-c3ccco3)nn2S(=O)(=O)c2ccc3ccccc3c2)cc1`, the inhibition is -8.36%.
In the case of `COc1cccc(CN(Cc2ccccc2F)S(=O)(=O)c2ccc(S(=O)(=O)NCc3ccccc3)cc2)c1` it was active: 43%; in that of `O=C(/C=C/Nc1ccc(F)cc1)c1ccc(Oc2ncccn2)cc1`, active: 34.5%.
In the case of `Cc1nc(SCC(=O)NCc2ccco2)c2c3c(sc2n1)CCCC3` it was active: 36.3%; in that of `CC(C)c1ccccc1OCC(=O)N(C)CC(=O)Nc1ccc(F)cc1`, active: 55.8%; in that of `Cc1ccc(Nc2c(-c3ccncc3)nc3ccc(C)cn23)cc1`, 1.51%.
As for `CCOc1ccc(OCC)c(S(=O)(=O)N2CCN(c3cccc(C)c3C)CC2)c1`, the figure is -1.02%.
As to `CCOC(=O)C1(CCc2ccccc2)CCN(Cc2cccc3nccnc23)CC1`, the inhibition is active: 65.3%.
In the case of `Cc1ccc(CN(C(=O)COc2cccc([N+](=O)[O-])c2)c2ccccn2)cc1`, the inhibition amounted to 3.19%.
As for `CCOC(=O)C1CCN(c2ncnc3c2nnn3C)CC1`, the figure is 25.1%; as for `CCCCNC(=O)CSc1nc2cc3c(cc2c(=O)n1CCCCCC(=O)NCc1ccc2c(c1)OCO2)OCO3`, -18.8%; as for `Cc1ccc(-n2c(SCC(=O)NCc3ccc(F)cc3)nc3c([nH]c4ccccc43)c2=O)cc1`, -4.76%.
In the case of `Cc1ccc2oc3c(c(=O)c2c1)C(c1ccccc1F)N(CCCN1CCOCC1)C3=O` (centres undefined) it was -9.55%; in that of `COc1ccc(N(CC(=O)NCCc2ccccc2)S(=O)(=O)c2ccccc2)c(OC)c1`, 8.01%; in that of `Cc1cc(C)cc(NC(=O)CCc2c(C)nn(-c3ccc(N4CCCC4)nn3)c2C)c1`, 22.9%.
Take `COc1cc2c(cc1OC)C(COc1ccc(F)cc1)N(C(=O)Cc1ccc(F)cc1)CC2` (centres undefined): the inhibition came out at 9.63%.
As for `CCC(Sc1nc2cc(OC)c(OC)cc2c(=O)n1CCc1ccc(Cl)cc1)C(=O)NCCOC` (centres undefined), the inhibition amounted to 27.2%.
Consider `Cc1cc(C)cc(OCC(=O)Nc2ccc(-c3nc4ccccc4s3)cc2)c1`, for which the inhibition was -16.4%.
In the case of `COc1cc2nc(SCc3cccc(Cl)c3)n3nc(CCn4nc(C)cc4C)nc3c2cc1OC` it was -2.32%.
In the case of `Cn1nnc2c(N3CCN(c4ccccc4F)CC3)ncnc21` it was 17.4%.
In the case of `CCOc1ccc(-c2cc(OC(=O)c3ccccc3)c3c(C)oc(C)c3c(=O)c2)cc1` it was -6.15%; in that of `Cc1ccccc1C(=O)Nc1cccc(C(=O)OCc2cc(=O)n3c4c(sc3n2)CCCC4)c1`, -1.37%.
As to `O=C(CSc1nc2ccccc2n1Cc1ccccc1F)NCc1ccccc1`, the inhibition is -14.1%.
As for `Cc1ccc(NC(=O)N(Cc2cn(C)c3ccccc23)C2CCCCC2)cc1C`, the figure is 8.4%; as for `CC(C)NC(=O)c1ccc(-n2c(-c3ccccc3)cc3c2CCCCC3)cc1`, -6.01%; as for `COc1ccc(NC(=O)N2CCCC(C(=O)NC(C)C)C2)cc1` (centres undefined), active: 32.7%.
As for `O=C(c1ccc2c(c1)OCO2)C1CCCN(C2CCN(CCc3ccccc3)CC2)C1` (centres undefined), the figure is active: 69.8%; as for `Nc1ncc(S(=O)(=O)NCc2ccc(Cl)cc2)cn1`, 3.61%; as for `Cn1c(=O)n(C)c2cc(NS(=O)(=O)c3ccc(Cl)cc3)c(NCc3ccccc3)cc21`, -0.547%.
As for `COc1cc(CNCCCSc2nnnn2C)cc(Br)c1OC`, the figure is 20.2%; as for `Cc1ccc(-n2c3c(c(=O)[nH]c2=O)C(NC(=O)C(C)(C)C)(C(F)(F)F)C(=O)N3)cc1` (centres undefined), -8.15%; as for `O=C(Nc1cccc(F)c1)C1CCN(c2nc3ccccc3nc2C(F)(F)F)CC1`, -3.89%.
Regarding `CCc1ccccc1-n1nnc(-c2nc(-c3ccccc3F)no2)c1C`, the inhibition was -5.35%.
As for `COc1ccc(OC)c(NC(=O)CCCOc2cc(=O)n(C)c3ccccc23)c1`, the figure is 10.4%; as for `COc1cccc(NC(=O)CSC2=Nc3ccccc3C3=NC(CCC(=O)NC4CCCCC4)C(=O)N23)c1` (centres undefined), 14.6%.
With `COc1cccc2c1Oc1ncccc1N(C(=O)CCC(=O)NCc1ccc(OC(C)C)cc1)C2`, the inhibition turned out to be 9.61%.
In the case of `Cc1nn(CC(=O)NC(C)c2ccccc2)c(=O)c2cc3occc3n12` (centres undefined) it was -1.06%; in that of `O=C(CSc1nc2c([nH]c3ccccc32)c(=O)n1-c1ccccc1)Nc1ccccc1C(F)(F)F`, -2.3%.
In the case of `NC(=O)COc1ccc(-c2noc(COc3ccc(Cl)cc3)n2)cc1` it was -13.3%.
As for `COc1ccc(CCNC(=O)COC(=O)c2cccs2)cc1`, the figure is active: 36.7%.
On to `CCOC(=O)C1=C(CN2CCN(c3ccc(Cl)cc3)CC2)NC(=O)NC1c1ccc(F)cc1` (centres undefined), for which the inhibition was -16%.
`COc1ccc2c(c1)CC(C(=O)Nc1c(C)cc(C)cc1C)CO2` (centres undefined): the inhibition was -12%.
As for `NS(=O)(=O)c1ccc(CCNC(=O)Cn2c(=O)c3cccn3c3ccc(F)cc32)cc1`, the figure is 4.63%; as for `Cc1nn2c(=O)cc(COC(=O)c3ccccc3NC(=O)C3CCCCC3)nc2s1`, -13.6%.
As for `CCOc1ccc(N(CC)S(=O)(=O)N2CCCC(C(=O)NCc3ccccc3OCC)C2)cc1` (centres undefined), the figure is 2.07%; as for `COc1cc(-c2cc3n(C)c(C)c(CCC(=O)NC4CCC(C)CC4)c(=O)n3n2)cc(OC)c1OC` (centres undefined), 9.41%.
In the case of `COc1cc(C(=O)N(CCCN(C)C)c2nc3c(OC)cccc3s2)cc(OC)c1OC` it was -13.1%; in that of `O=C(NC1CCCC1)c1ccc2c(c1)N(Cc1c(F)cccc1Cl)C(=O)c1ccccc1S2`, -13.1%; in that of `Cc1ccc2c(c1)-c1nc(-c3ccccc3)cc(-c3ccccc3)c1CO2`, 13.6%.
Take `OCC1(Cc2ccccc2)CCN(Cc2cc3ccccc3o2)CC1`: the inhibition is active: 94.6%.
As for `CSCCC(NS(=O)(=O)c1ccc2[nH]c(=O)c(=O)[nH]c2c1)C(=O)O` (centres undefined), the figure is active: 35.7%.

For the origin of these results see PubChem BioAssay AID485344 (National Center for Advancing Translational Sciences (NCATS), 2010).
